Laboratory results published in the supplement of paper PMC12217912.
The list shows a part of the results. The full chains were built here from the parent and the listed change. Inactive controls read about 0.05.

B1: TEV protease; numbered along this chain (parent)
chain: MGESLFKGPRDYNPISSSICHLTNESDGHTTSLYGIGFGPFIITNKHLFRRNNGTLVVQSLHGVFKVKDTTTLQQHLVDGRDMIIIRMPKDFPPFPQKLKFREPQREERICLVTTNFQTKSMSSMVSDTSCTFPSGDGIFWKHWIQTKDGQCGSPLVSTRDGFIVGIHSASNFTNTNNYFTSVPKNFMELLTNQEAQQWVSGWRLNADSVLWGGHKVFMVKPEEPFQPVKEATQL

Variants of: B1
Assay: raw area under fraction-flipped curve 0-4 h after induction (AUC4h, not background-subtracted), DNA-recorder readout of cleavage of the substrate (dimensionless); higher = more cleavage of the substrate by the protease variant
Details: temperature: 34 °C; time window: 0-4 h after rhamnose induction
Protocol: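 In vivo DNA recorder in E. coli TOP10(DE3) ΔrhaA at 34 °C. Each TEVp single-site mutant (parent TEVp 0) is paired with a single-site variant of the 7-mer TEVs (canonical ENLYFQ|S). The substrate sits between flexible linkers in a Bxb1-sfGFP-TEVs-SsrA fusion, so cleavage stabilises Bxb1 and speeds flipping of a recombination array, read by NGS. The value is the raw area under the fraction-flipped curve over 0-4 h after rhamnose induction (AUC4h), with ≥20 reads per time point. It is not background-subtracted; inactive controls average about 0.047.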
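Further: Bxb1 expression induced with 0.2% (w/v) L-rhamnose at OD600 near 0.5, cultures sampled hourly, flipped fraction per protease–substrate barcode pair counted by paired-end Illumina sequencing.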

Row | Variant | area with substrate ENLYFQA | area with substrate ENLYFQC | area with substrate ENLYFQE | area with substrate ENLYFQG | area with substrate ENLYFQH | area with substrate ENLYFQL | area with substrate ENLYFQM | area with substrate ENLYFQN | area with substrate ENLYFQR | area with substrate ENLYFQS | area with substrate ENLYFQT | area with substrate ENLYFQV | area with substrate ENLYFQD | area with substrate ENLYFQF | area with substrate ENLYFQI | area with substrate ENLYFQK | area with substrate ENLYFQQ | area with substrate ENLYFQY | area with substrate ENLYFQW | area with substrate ENLYFQP
1 | V157G | 0.0549 | 0.0438 | 0.0585 | 0.0455 | 0.0407 | 0.052 | 0.0451 | 0.0474 | 0.0497 | 0.0538 | 0.0658 | 0.0337 |  |  |  |  |  |  |  | 
2 | W144A | 0.0797 | 0.0914 |  |  | 0.0699 | 0.0604 | 0.0721 |  | 0.0619 | 0.0855 | 0.0746 | 0.0686 | 0.0853 | 0.0559 | 0.0384 | 0.0748 | 0.0596 | 0.0675 |  | 
3 | W144I | 0.0884 |  |  |  | 0.0605 | 0.0604 |  | 0.0513 | 0.0554 | 0.0875 | 0.0657 |  | 0.0636 |  | 0.0576 | 0.0585 |  |  |  | 
4 | W144F | 0.0663 |  |  | 0.0994 | 0.0875 | 0.0731 | 0.0855 | 0.0661 |  | 0.0917 | 0.0689 | 0.0491 | 0.0888 |  | 0.0602 | 0.0651 |  |  | 0.0666 | 
5 | P155Q | 0.061 | 0.045 |  | 0.0803 | 0.0357 | 0.0517 | 0.0617 | 0.0487 | 0.0527 | 0.0533 | 0.0479 | 0.056 | 0.051 | 0.0488 | 0.0477 | 0.0457 |  | 0.0558 | 0.0338 | 0.054
6 | I145T | 0.102 | 0.118 |  | 0.112 | 0.0877 | 0.0682 | 0.0941 | 0.0709 | 0.0502 | 0.11 | 0.0677 | 0.0594 |  | 0.0781 | 0.0657 | 0.0644 |  | 0.0795 | 0.0588 | 0.0558
7 | M125D | 0.0826 | 0.0826 | 0.07 | 0.103 | 0.0777 | 0.056 | 0.0835 | 0.0672 | 0.0642 | 0.102 | 0.0701 | 0.101 |  | 0.0704 | 0.0616 | 0.0651 |  | 0.0661 | 0.063 | 0.0599
8 | S123W | 0.0976 | 0.11 | 0.0693 | 0.0977 | 0.0597 | 0.0551 | 0.091 | 0.144 | 0.0633 | 0.106 | 0.0659 | 0.0643 | 0.0758 | 0.0446 | 0.0545 | 0.0653 | 0.0763 | 0.0805 | 0.067 | 0.0554
9 | T114H | 0.0963 | 0.119 |  |  |  |  |  | 0.0854 |  | 0.104 | 0.0699 |  |  |  |  | 0.0678 |  |  |  | 
10 | D149G | 0.0829 | 0.0903 |  | 0.101 | 0.0782 | 0.0482 | 0.0774 | 0.0605 | 0.0518 | 0.0971 | 0.0631 |  | 0.0553 | 0.0782 | 0.0624 |  |  | 0.0653 | 0.0606 | 
11 | D149R | 0.0819 | 0.101 |  |  |  |  | 0.074 |  |  | 0.0795 | 0.0731 |  |  |  | 0.0584 |  |  |  | 0.0512 | 0.0406
12 | N116C | 0.0611 | 0.0943 |  |  |  | 0.059 | 0.0891 | 0.0783 |  | 0.0982 | 0.0487 |  |  | 0.0734 | 0.0548 | 0.0527 |  | 0.116 |  | 0.0455
13 | C152Q | 0.0563 |  |  |  |  |  | 0.0622 |  |  | 0.063 |  | 0.0529 |  |  | 0.0543 |  |  |  |  | 
14 | C152Y | 0.0666 | 0.0464 |  |  |  | 0.0639 | 0.0639 | 0.0377 | 0.0603 | 0.061 |  |  |  |  |  |  |  | 0.0534 |  | 
15 | F117L | 0.101 | 0.149 |  |  | 0.088 | 0.0524 |  | 0.0746 | 0.0489 | 0.102 | 0.0555 | 0.0552 | 0.0884 |  |  | 0.0757 | 0.0946 |  | 0.0624 | 0.0835
16 | F117V | 0.0879 |  |  | 0.0906 | 0.0778 | 0.0371 | 0.0821 | 0.0889 | 0.0494 | 0.0999 | 0.0667 | 0.0617 | 0.0659 |  |  |  |  | 0.0751 | 0.0706 | 0.0778
17 | V126T | 0.0914 | 0.124 |  | 0.0973 | 0.0913 | 0.0584 |  | 0.0888 | 0.0893 | 0.106 | 0.0654 |  | 0.0788 | 0.0771 | 0.0586 | 0.0562 |  | 0.0814 |  | 
18 | P134T | 0.0489 |  |  |  | 0.0653 | 0.0636 |  | 0.052 | 0.0701 | 0.0832 | 0.0591 | 0.0683 | 0.0783 | 0.0763 | 0.0601 | 0.0558 |  |  |  | 0.0615
19 | P134Y | 0.0689 | 0.0849 | 0.0618 | 0.0724 | 0.0708 | 0.065 | 0.0671 | 0.0699 | 0.0605 | 0.0772 | 0.0595 | 0.0667 | 0.0571 | 0.0721 | 0.0656 | 0.0599 |  | 0.0591 | 0.0303 | 0.0644
20 | P134C | 0.0813 | 0.1 |  | 0.0792 |  | 0.0668 | 0.0808 | 0.0573 | 0.0596 | 0.0845 | 0.063 | 0.0579 | 0.0639 | 0.0687 | 0.0582 | 0.0542 | 0.0703 |  |  | 0.0666
21 | G136E | 0.0575 | 0.128 |  | 0.097 |  | 0.0633 |  |  | 0.0506 | 0.106 | 0.0649 | 0.0429 | 0.0384 |  | 0.0612 |  |  | 0.0633 | 0.0687 | 0.0659
22 | G136F | 0.0933 | 0.116 |  | 0.0998 | 0.105 | 0.0602 | 0.0815 | 0.0811 | 0.0899 | 0.104 | 0.06 | 0.0604 | 0.0746 |  |  | 0.0556 |  | 0.0841 | 0.0621 | 0.0535
23 | G136A | 0.0881 | 0.105 |  | 0.089 | 0.0793 | 0.0798 | 0.0843 | 0.0602 | 0.0624 | 0.0956 |  | 0.0264 |  | 0.0611 |  | 0.0652 |  |  |  | 
24 | G136V | 0.0799 | 0.116 |  | 0.103 | 0.0822 | 0.0601 | 0.0644 |  | 0.0549 | 0.0988 | 0.0558 | 0.0574 |  |  | 0.0583 | 0.0439 |  | 0.071 | 0.0626 | 
25 | I110V | 0.0381 | 0.123 |  | 0.0859 |  | 0.0675 | 0.0939 | 0.0888 | 0.0644 | 0.102 | 0.0589 | 0.0637 | 0.0675 | 0.0782 | 0.0655 | 0.0667 | 0.0752 | 0.0833 | 0.065 | 0.0639
26 | D128Q | 0.117 | 0.131 | 0.0672 | 0.131 |  | 0.0684 |  | 0.0933 | 0.0576 | 0.131 | 0.0727 | 0.0683 | 0.0794 |  | 0.0625 | 0.0616 |  |  | 0.0842 | 0.0611
